Reference: the antibiotic and cytotoxicity screens of Wong et al. (2023)
This is one part of the list.

test system: HSkMC (human skeletal muscle cells); assay: cytotoxicity call (relative viability < 0.9); conditions: 10 µM

Row | Structure (SMILES) | cytotoxicity call
1 | Cc1ccc(S(=O)(=O)Nc2ccc3c(c2)C(=O)N([C@H](C)CO)C[C@@H](C)[C@H](CN(C)C(=O)NC2CCCCC2)OCCCC[C@H](C)O3)cc1 | inactive
2 | O=C(Nc1ccc(C(F)(F)F)cc1)Nc1ccc2c(c1)[C@@H]1C[C@H](CC(=O)N3CCc4ccccc4C3)O[C@@H](CO)[C@@H]1O2 | inactive
3 | C[C@H](CO)N1C[C@H](C)[C@H](CN(C)Cc2ccc3c(c2)OCO3)Oc2ccc(NC(=O)Nc3cccc4ccccc34)cc2CC1=O | inactive
4 | O=C(O)CCc1nc2ccccc2[nH]1 | inactive
5 | C[C@@H]1CN([C@@H](C)CO)C(=O)c2cc(NS(=O)(=O)c3ccc(F)cc3)ccc2O[C@@H]1CN(C)S(=O)(=O)c1ccccc1 | inactive
6 | Cc1noc(C)c1NC(=O)N[C@H]1C=C[C@H](CC(=O)N2CCN(C)CC2)O[C@H]1CO | inactive
7 | C[C@@H]1CN([C@H](C)CO)C(=O)c2cc(C#CCN(C)C)cnc2O[C@@H]1CN(C)C(=O)Nc1cccc(F)c1 | inactive
8 | C[C@H](CO)N1C[C@H](C)[C@H](CN(C)C(=O)Nc2ccc(F)cc2)Oc2ncc(-c3cccc(C(F)(F)F)c3)cc2C1=O | inactive
9 | C[C@H]1CN([C@@H](C)CO)C(=O)Cc2cc(NS(=O)(=O)c3cccs3)ccc2O[C@@H]1CN(C)S(=O)(=O)c1cn(C)cn1 | inactive
10 | C[C@@H]1CCCCO[C@H](CN(C)Cc2ccccc2)[C@@H](C)CN([C@@H](C)CO)C(=O)c2cc(NC(=O)Nc3ccc(F)cc3)ccc2O1 | inactive
11 | CC(C)(C)Nc1nc(=O)[nH]c(=O)[nH]1 | inactive
12 | COCCNC(=O)C[C@H]1CC[C@H]2[C@@H](COC[C@H](O)CN2C(=O)Nc2ccccc2OC)O1 | inactive
13 | COc1ccc(S(=O)(=O)Nc2ccc3c(c2)C(=O)N([C@@H](C)CO)C[C@@H](C)[C@H](CN(C)C(=O)C2CCCCC2)OCCCC[C@H](C)O3)cc1 | inactive
14 | O=C(C[C@H]1C[C@@H]2c3cc(NC(=O)Nc4ccc(C(F)(F)F)cc4)ccc3O[C@@H]2[C@@H](CO)O1)NC1CCCCC1 | inactive
15 | CC[C@H]1OC(=O)[C@H](C)[C@@H](O[C@H]2C[C@@](C)(OC)[C@@H](O)[C@H](C)O2)[C@H](C)[C@@H](O[C@@H]2O[C@H](C)C[C@H](N(C)C)[C@H]2O)[C@](C)(O)C[C@@H](C)[C@@H]2N[C@@H](COCCOC)O[C@H]([C@H]2C)[C@]1(C)O | inactive
16 | COc1ccc(NC(=O)Nc2ccc3c(c2)[C@H]2C[C@H](CC(=O)N4CCN(C)CC4)O[C@H](CO)[C@H]2O3)cc1 | inactive
17 | COc1ccc([Si](C)(C)[C@H]2[C@H](CCn3cc(CCO)nn3)O[C@@]3(C(=O)N(Cc4cccc(N5C(=O)c6cccc7cccc5c67)c4)c4ccccc43)[C@@H]2C)cc1 | inactive
18 | COCC(=O)N1C[C@@H](C)[C@H](OC)CN(C)C(=O)c2ccc(NC(=O)c3ccc(OC)cc3)cc2OC[C@@H]1C | inactive
19 | CCCC#Cc1ccc2c(c1)O[C@@H](CN(C)S(=O)(=O)c1cccc(OC)c1)[C@H](C)CN([C@@H](C)CO)S2(=O)=O | inactive
20 | COc1ccccc1CNC(=O)C[C@@H]1C[C@@H]2c3cc(NC(=O)c4ccc5c(c4)OCO5)ccc3O[C@@H]2[C@@H](CO)O1 | inactive
21 | CC(C)NC(=O)Nc1cccc2c1O[C@H](CN(C)C(=O)Nc1ccc3c(c1)OCO3)[C@H](C)CN([C@H](C)CO)C2=O | inactive
22 | C[C@@H]1CCCCO[C@H](CN(C)CC2CCCCC2)[C@@H](C)CN([C@H](C)CO)C(=O)c2cc(NS(=O)(=O)c3ccc(Cl)cc3)ccc2O1 | inactive
23 | CCc1nc2ccc(C(=O)Nc3cc(-c4ccccc4)ccc3OC)cn2c1N(CCN(C)C)CC1CC1 | inactive
24 | C[C@H]1CN([C@@H](C)CO)C(=O)c2cc(NS(=O)(=O)c3ccc(Cl)cc3)ccc2O[C@@H]1CN(C)Cc1ccc(C(F)(F)F)cc1 | active
25 | Cc1ccc(S(=O)(=O)Nc2ccc3c(c2)C(=O)N([C@H](C)CO)C[C@H](C)[C@H](CN(C)S(=O)(=O)c2ccc(Cl)cc2)OCCCC[C@H](C)O3)cc1 | inactive
26 | CN(C)C(=O)C[C@@H]1CC[C@H]2[C@H](COc3ccc(NS(=O)(=O)c4cccc(F)c4)cc3C(=O)N2C)O1 | inactive
27 | C[C@H]1CN([C@@H](C)CO)C(=O)c2cc(NS(=O)(=O)c3cn(C)cn3)ccc2O[C@H]1CN(C)Cc1ccccc1 | inactive
28 | O=C(CCCCCCC(=O)Nc1ccc([C@H]2O[C@H](CSc3nc(-c4ccccc4)c(-c4ccccc4)o3)C[C@H](c3ccc(NC(=O)CCCCCCC(=O)NO)cc3)O2)cc1)NO | inactive
